Reference: publication PMC4336329 (PLoS ONE, 2015)
In all, about 310,000 compounds went through this assay and about 14,000 (4.5%) showed an effect of 50% or more. The effect is printed as a negative number. Some of the results follow.

molecular target: human ether-à-go-go-related gene (hERG) potassium channel (human, UniProt Q12809); assay: primary screen, population patch clamp on CHO cells stably expressing hERG
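Further: peak tail current of the secondary pulse compared with the same well before compound.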

Chain of human ether-à-go-go-related gene (hERG) potassium channel (Q12809 whole entry, looked up): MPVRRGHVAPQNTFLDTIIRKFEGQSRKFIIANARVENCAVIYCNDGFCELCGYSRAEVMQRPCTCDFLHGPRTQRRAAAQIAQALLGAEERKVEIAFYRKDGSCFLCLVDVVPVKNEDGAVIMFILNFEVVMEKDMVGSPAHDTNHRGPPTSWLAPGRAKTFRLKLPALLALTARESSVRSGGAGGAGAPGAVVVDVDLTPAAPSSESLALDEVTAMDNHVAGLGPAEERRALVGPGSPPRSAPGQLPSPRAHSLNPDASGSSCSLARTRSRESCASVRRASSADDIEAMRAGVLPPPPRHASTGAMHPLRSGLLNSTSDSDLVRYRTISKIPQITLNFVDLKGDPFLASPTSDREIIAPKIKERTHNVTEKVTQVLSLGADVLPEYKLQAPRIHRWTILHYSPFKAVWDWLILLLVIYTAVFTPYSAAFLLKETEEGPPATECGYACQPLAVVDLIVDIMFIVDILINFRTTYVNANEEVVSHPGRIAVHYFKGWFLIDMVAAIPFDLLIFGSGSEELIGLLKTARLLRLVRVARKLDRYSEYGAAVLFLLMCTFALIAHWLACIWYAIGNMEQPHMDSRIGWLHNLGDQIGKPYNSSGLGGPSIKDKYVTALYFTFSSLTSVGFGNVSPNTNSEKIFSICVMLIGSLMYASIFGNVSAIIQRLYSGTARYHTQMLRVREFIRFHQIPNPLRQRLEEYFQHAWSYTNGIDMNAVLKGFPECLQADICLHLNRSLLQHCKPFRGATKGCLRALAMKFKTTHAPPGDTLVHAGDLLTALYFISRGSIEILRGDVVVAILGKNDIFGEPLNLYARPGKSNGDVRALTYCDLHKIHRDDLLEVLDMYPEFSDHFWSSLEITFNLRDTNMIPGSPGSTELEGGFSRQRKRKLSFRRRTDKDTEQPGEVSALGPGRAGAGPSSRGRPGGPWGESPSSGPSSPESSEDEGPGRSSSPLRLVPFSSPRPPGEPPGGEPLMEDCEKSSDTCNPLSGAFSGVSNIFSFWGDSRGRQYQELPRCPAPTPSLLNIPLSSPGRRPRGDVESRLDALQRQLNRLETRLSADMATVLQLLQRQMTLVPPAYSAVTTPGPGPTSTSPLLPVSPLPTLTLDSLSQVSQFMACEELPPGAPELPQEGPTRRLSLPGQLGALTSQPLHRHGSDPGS

Q: Which “hERG current change (%, negative = inhibition) at 10uM” value does the source give for `CN(CC(=O)Nc1ccc(Cl)cc1)C(=O)CCC1CCCC1` here?
A: 13.2%

Q: Which “hERG current change (%, negative = inhibition) at 10uM” value does the source give for `CCn1c(SCC(=O)c2ccc(Cl)cc2)nnc1C(C)C` here?
A: -2.46%

Q: `O=C(NC1CCCC1)c1csc2c1CCCC2` was tested. Which “hERG current change (%, negative = inhibition) at 10uM” value did it give?
A: -4.53%

Q: Which “hERG current change (%, negative = inhibition) at 10uM” value does the source give for `CCn1cc(CNC(=S)Nc2cccc3ccccc23)cn1` here?
A: 0.0822%

Q: With `CC(C)c1ccccc1NC(=O)Cn1c(/C=C/c2ccccc2)nc2ccccc21` as the molecule, how does the “hERG current change (%, negative = inhibition) at 10uM” value read?
A: 24.7%

Q: Which “hERG current change (%, negative = inhibition) at 10uM” value does the source give for `CC(=O)N(CCC(Cc1ccccc1)c1ccc2c(c1)OCO2)Cc1ccccc1F` (stereo not shown) here?
A: 7.53%

Q: For `O=C(O)c1cc(-c2ccc(Cl)cc2)n(-c2ccc(Cl)cc2)n1`, which “hERG current change (%, negative = inhibition) at 10uM” value is on record?
A: 38.2%

Q: Which “hERG current change (%, negative = inhibition) at 10uM” value does the source give for `Cc1ccc(C2(COC(=O)C(C)C)CO2)c(OC(=O)C(C)C)c1` (stereo not shown) here?
A: 2.15%

Q: Which “hERG current change (%, negative = inhibition) at 10uM” value does the source give for `Cc1ccc(-c2cc(C(=O)O)n[nH]2)s1` here?
A: 11.5%

Q: Which “hERG current change (%, negative = inhibition) at 10uM” value does the source give for `O=C(CC1C(=O)CCCC1=O)c1ccccc1` here?
A: 25.1%

Q: With `Cc1ccc(-n2cc(C(=O)c3ccc4ccccc4c3O)cn2)cc1` as the molecule, how does the “hERG current change (%, negative = inhibition) at 10uM” value read?
A: 8.15%

Q: For `Cc1cc(OCCOCCN(C)C)ccc1Cl.O=C(O)C(=O)O`, which “hERG current change (%, negative = inhibition) at 10uM” value is on record?
A: -9.75%

Q: For `COc1cccc2c1OCC(C(=O)Nc1nccs1)=C2`, which “hERG current change (%, negative = inhibition) at 10uM” value is on record?
A: -0.366%

Q: How did the “hERG current change (%, negative = inhibition) at 10uM” value turn out when `COCCNCC(=O)N1c2ccccc2Sc2ccccc21` was run?
A: 3.39%

Q: Which “hERG current change (%, negative = inhibition) at 10uM” value does the source give for `CC(=O)c1c(C)[nH]c(C(=O)COc2cc(C)cc(C)c2)c1C` here?
A: 10.3%

Q: How did the “hERG current change (%, negative = inhibition) at 10uM” value turn out when `O=C1Nc2cc(Cl)cnc2N2CCCC12` (stereo not shown) was run?
A: -9.32%

Q: How did the “hERG current change (%, negative = inhibition) at 10uM” value turn out when `CCOC(=O)[C@@H]1[C@H]2COc3ccccc3[C@@H]2N2C(=O)N(c3ccc(F)cc3)C(=O)[C@]12C` was run?
A: -2.61%

Q: Which “hERG current change (%, negative = inhibition) at 10uM” value does the source give for `O=C(CSc1nc2ccccc2s1)Nc1ccc(Cl)c(C(=O)O)c1` here?
A: 7.61%

Q: With `Cc1ccc(C)c(CN2C(=O)C(C)Oc3ccc(C)cc32)c1` (stereo not shown) as the molecule, how does the “hERG current change (%, negative = inhibition) at 10uM” value read?
A: 5.67%

Q: With `Cc1nn(CCCC(=O)NCc2ccccc2)c(=O)c2nn(-c3ccccc3)c(C)c12` as the molecule, how does the “hERG current change (%, negative = inhibition) at 10uM” value read?
A: 4.95%

Q: For `O=C1CCCN1CCCn1cnc2c([nH]c3ccc(F)cc32)c1=O`, which “hERG current change (%, negative = inhibition) at 10uM” value is on record?
A: -42.2%

Q: With `CN(C)S(=O)(=O)c1cccc(NC(=O)c2ccc(S(=O)(=O)N3CCCCC3)cc2)c1` as the molecule, how does the “hERG current change (%, negative = inhibition) at 10uM” value read?
A: 8.47%

Q: How did the “hERG current change (%, negative = inhibition) at 10uM” value turn out when `CCOC(=O)c1nn(-c2ccccc2)c2nnc(Cc3ccc(C)cc3)c(=O)n12` was run?
A: -30.2%

Q: Which “hERG current change (%, negative = inhibition) at 10uM” value does the source give for `Cc1nn(Cc2ccccc2)c(Cl)c1/C=C/C(=O)OCC(=O)NC(C)C(C)C` (stereo not shown) here?
A: 16%

Q: With `COc1ccc(S(=O)(=O)N2CCOC23CCN(S(=O)(=O)c2ccc(C)cc2)CC3)cc1` as the molecule, how does the “hERG current change (%, negative = inhibition) at 10uM” value read?
A: -1.28%

Q: With `C[C@@H]1NC(=O)N(c2ccc(F)cc2)C1=O` as the molecule, how does the “hERG current change (%, negative = inhibition) at 10uM” value read?
A: 14.7%

Q: Which “hERG current change (%, negative = inhibition) at 10uM” value does the source give for `CCOCCCNC(=O)c1cc(C)nn1-c1ccccc1` here?
A: 11%

Q: How did the “hERG current change (%, negative = inhibition) at 10uM” value turn out when `O=C(c1ccccc1C(=O)N1CCN(c2ccccc2F)CC1)N1CCN(c2ccccc2F)CC1` was run?
A: -31%

Q: With `Nc1nnc(SCC(=O)OCC(=O)Nc2ccccc2)s1` as the molecule, how does the “hERG current change (%, negative = inhibition) at 10uM” value read?
A: 6.65%

Q: For `Cn1cc(SCC(=O)Nc2ccc3c(c2)OCCO3)c2ccccc21`, which “hERG current change (%, negative = inhibition) at 10uM” value is on record?
A: -19.3%

Q: Which “hERG current change (%, negative = inhibition) at 10uM” value does the source give for `O=C(Cn1c(-c2ccccc2)c[n+]2ccsc12)c1ccc([N+](=O)[O-])cc1.[Br-]` here?
A: -49%

Q: For `O=C(CN1CCN(S(=O)(=O)c2ccc(Cl)s2)CC1)N1CCOCC1`, which “hERG current change (%, negative = inhibition) at 10uM” value is on record?
A: 14.4%

Q: `CCN(CC(=O)Nc1ccc(Cl)c(S(=O)(=O)N(C)C)c1)CC(=O)NC(C)C` was tested. Which “hERG current change (%, negative = inhibition) at 10uM” value did it give?
A: 8.55%

Q: With `Cc1ccc(S(=O)(=O)Nc2ccc3c(c2)nc2n3CCN(Cc3ccccc3)C2)cc1` as the molecule, how does the “hERG current change (%, negative = inhibition) at 10uM” value read?
A: -18.8%

Q: `COC(=O)c1cc(-c2c(C)oc3cc(O)ccc3c2=O)c(C)o1` was tested. Which “hERG current change (%, negative = inhibition) at 10uM” value did it give?
A: -3.71%

Q: For `CC(=O)N1c2ccc(S(=O)(=O)N3CCC(C(=O)NCCc4ccc(Cl)cc4)CC3)cc2CC1C` (stereo not shown), which “hERG current change (%, negative = inhibition) at 10uM” value is on record?
A: 14.3%

Q: How did the “hERG current change (%, negative = inhibition) at 10uM” value turn out when `Cc1cc(C(F)(F)F)nn1CCCNC(=O)c1cnccn1` was run?
A: -18.7%

Q: For `CSc1nc(Sc2ccc(Cl)cc2)c2ccccc2n1`, which “hERG current change (%, negative = inhibition) at 10uM” value is on record?
A: 22.2%

Q: `Cc1cccc(NC(=S)NC2CC3CCCC(C2)N3CC(C)C)c1` (stereo not shown) was tested. Which “hERG current change (%, negative = inhibition) at 10uM” value did it give?
A: -41.5%

Q: For `Cc1ccc(C(=O)Nc2ccc(C(F)(F)F)n(C)c2=O)cc1`, which “hERG current change (%, negative = inhibition) at 10uM” value is on record?
A: 23.4%

Q: Which “hERG current change (%, negative = inhibition) at 10uM” value does the source give for `O=C(CCN1CCCCO1)N1CCCC(Nc2cccc(F)c2)C1` (stereo not shown) here?
A: 14%

Q: For `Cc1ccccc1OCC(=O)NNC(=S)NC(=O)c1ccco1`, which “hERG current change (%, negative = inhibition) at 10uM” value is on record?
A: 11.3%

Q: For `Cc1ccc(CN2CC3CC(C2)c2cccc(=O)n2C3)cc1` (stereo not shown), which “hERG current change (%, negative = inhibition) at 10uM” value is on record?
A: -5.29%

Q: Which “hERG current change (%, negative = inhibition) at 10uM” value does the source give for `Cc1ccc(S(N)(=O)=O)cc1NC(=O)/C=C/c1cccs1` here?
A: -9.76%

Q: How did the “hERG current change (%, negative = inhibition) at 10uM” value turn out when `CC(=O)N1c2ccc(S(=O)(=O)NCCC(=O)N(C)Cc3ccccc3)cc2CC1C` (stereo not shown) was run?
A: 0.141%

Q: How did the “hERG current change (%, negative = inhibition) at 10uM” value turn out when `CCC(=O)Nc1cccc(NC(=O)c2ccc3c(c2)OCO3)c1` was run?
A: -10.5%

Q: `Cc1cccc(-c2noc(CN(C(=O)c3ccc(Br)o3)C(C)C)n2)c1` was tested. Which “hERG current change (%, negative = inhibition) at 10uM” value did it give?
A: 4.16%

Q: With `Cc1cc(C[n+]2ccccc2)c2nsnc2c1.[Cl-]` as the molecule, how does the “hERG current change (%, negative = inhibition) at 10uM” value read?
A: 17.3%

Q: For `CSc1nc(C)cc(C)c1C#N`, which “hERG current change (%, negative = inhibition) at 10uM” value is on record?
A: -3.61%

Q: Which “hERG current change (%, negative = inhibition) at 10uM” value does the source give for `CCc1nc2sc3c(c2c(=O)n1N)CC(C)(C)OC3` here?
A: 7.31%

Q: Which “hERG current change (%, negative = inhibition) at 10uM” value does the source give for `Cn1nc(OCCOc2ccccc2)ccc1=O` here?
A: -4.45%

Q: Which “hERG current change (%, negative = inhibition) at 10uM” value does the source give for `COc1ccc(-c2cc(C(=O)Nc3cccc(S(=O)(=O)NCc4ccco4)c3)c3ccccc3n2)cc1OC` here?
A: 22.5%

Q: Which “hERG current change (%, negative = inhibition) at 10uM” value does the source give for `O=C(CCNS(=O)(=O)c1ccccc1)NNC(=O)COc1ccc(Cl)cc1` here?
A: 2.29%

Q: Which “hERG current change (%, negative = inhibition) at 10uM” value does the source give for `Cc1ccc(SCCC(=O)NCCSCc2ccco2)cc1` here?
A: 14.5%

Q: For `CN(C)CCNC(=O)C1CC(=O)N(c2ccc(F)c(Cl)c2)C1` (stereo not shown), which “hERG current change (%, negative = inhibition) at 10uM” value is on record?
A: -11.2%

Q: `COc1ccccc1CN=C1NC(=O)C(CC(=O)Nc2ccc(C(C)=O)cc2)S1` (stereo not shown) was tested. Which “hERG current change (%, negative = inhibition) at 10uM” value did it give?
A: -6.17%

Q: How did the “hERG current change (%, negative = inhibition) at 10uM” value turn out when `COc1ccccc1CNC(=O)C1CCC(CNC(=O)[C@@H]2Cc3ccccc3CN2)CC1` (stereo partly shown) was run?
A: 2.23%

Q: `CCCCn1c(SCC(=O)Nc2cc(C)on2)nc2cc(S(N)(=O)=O)ccc21` was tested. Which “hERG current change (%, negative = inhibition) at 10uM” value did it give?
A: -20.1%
